Experimental data as given in a collection of fitness landscapes (doi:10.1126/science.1257360).
Some of the results follow.

B1: PhoQ; a variant is named by its letters at X, in order, P23837 (parent)
chain: MKKLLRLFFPLSLRVRFLLATAAVVLVLSLAYGMVALIGYSVSFDKTTFRLLRGESNLFYTLAKWENNKLHVELPENIDKQSPTMTLIYDENGQLLWAQRDVPWLMKMIQPDWLKSNGFHEIEADVNDTSLLLSGDHSIQQQLQEVREDDDDAEMTHSVAVNVYPATSRMPKLTIVVVDTIPVELKSSYMVWSWFIYVLSANLLLVIPLLWVAAWWSLRPIEALAKEVRELEEHNRELLNPATTRELTSLVRNLNRLLKSERERYDKYRTTLTDLTHSLKTPLXXLQXXLRSLRSEKMSVSDAEPVMLEQISRISQQIGYYLHRASMRGGTLLSRELHPVAPLLDNLTSALNKVYQRKGVNISLDISPEISFVGEQNDFVEVMGNVLDNACKYCLEFVEISARQTDEHLYIVVEDDGPGIPLSKREVIFDRGQRVDTLRPGQGVGLAVAREITEQYEGKIVAGESMLGGARMEVIFGRQHSAPKDE

Variants of: B1
Assay: enrichment ratio after two sorts for PhoP signalling (ratio (wild type AVST 3.29)); higher = more functional
Conditions: with PhoP (E. coli)
For WIRQ, the enrichment ratio was ≤ 0.25.
For HFLW, the enrichment ratio was ≤ 0.25.
With KCQT the enrichment ratio was ≤ 0.25.
For IYVR, the enrichment ratio was ≤ 0.25.
With QKVF the enrichment ratio was ≤ 0.25.
In the case of WVSL, the enrichment ratio is reported as ≤ 0.25.
In the case of IMRG, the enrichment ratio is reported as ≤ 0.25.
In the case of RKFA, the enrichment ratio is reported as ≤ 0.25.
EEHV was tested, and the enrichment ratio was ≤ 0.25.
With FTKW the enrichment ratio was ≤ 0.25.
In the case of YLHK, the enrichment ratio is reported as ≤ 0.25.
In the case of RCCF, the enrichment ratio is reported as ≤ 0.25.
For QAVQ, the enrichment ratio was ≤ 0.25.
With IRLQ the enrichment ratio was ≤ 0.25.
For YNQF, the enrichment ratio was ≤ 0.25.
With VEMW the enrichment ratio was ≤ 0.25.
RQSI was tested, and the enrichment ratio was ≤ 0.25.
AKMD was tested, and the enrichment ratio was ≤ 0.25.
In the case of YDMF, the enrichment ratio is reported as ≤ 0.25.
With EFYP the enrichment ratio was ≤ 0.25.
With GISI the enrichment ratio was 9.15.
In the case of VGCQ, the enrichment ratio is reported as ≤ 0.25.
For DIIM, the enrichment ratio was ≤ 0.25.
In the case of QISH, the enrichment ratio is reported as 7.86.
For YYRT, the enrichment ratio was ≤ 0.25.
For GVVG, the enrichment ratio was ≤ 0.25.
With LAEQ the enrichment ratio was ≤ 0.25.
For HYDE, the enrichment ratio was ≤ 0.25.
For FMQP, the enrichment ratio was ≤ 0.25.
WDPQ was tested, and the enrichment ratio was ≤ 0.25.
In the case of PNVA, the enrichment ratio is reported as ≤ 0.25.
With YRND the enrichment ratio was ≤ 0.25.
RSYS was tested, and the enrichment ratio was ≤ 0.25.
With ENNH the enrichment ratio was ≤ 0.25.
CSYQ was tested, and the enrichment ratio was ≤ 0.25.
With RYCC the enrichment ratio was ≤ 0.25.
SNHQ was tested, and the enrichment ratio was ≤ 0.25.
WPWF was tested, and the enrichment ratio was ≤ 0.25.
In the case of VHNP, the enrichment ratio is reported as ≤ 0.25.
In the case of FNRE, the enrichment ratio is reported as ≤ 0.25.
With YPQF the enrichment ratio was ≤ 0.25.
For MLTK, the enrichment ratio was ≤ 0.25.
With ADGE the enrichment ratio was ≤ 0.25.
In the case of RWKL, the enrichment ratio is reported as ≤ 0.25.
EWKL was tested, and the enrichment ratio was ≤ 0.25.
With TWDI the enrichment ratio was ≤ 0.25.
In the case of LCWD, the enrichment ratio is reported as ≤ 0.25.
For QHMI, the enrichment ratio was ≤ 0.25.
In the case of LQLK, the enrichment ratio is reported as ≤ 0.25.
With MAEL the enrichment ratio was ≤ 0.25.
With HTIV the enrichment ratio was ≤ 0.25.
MAGF showed an enrichment ratio of 14.5.
QCMH was tested, and the enrichment ratio was ≤ 0.25.
With MLVG the enrichment ratio was ≤ 0.25.
For WRVN, the enrichment ratio was ≤ 0.25.
HNDD was tested, and the enrichment ratio was ≤ 0.25.
For LITR, the enrichment ratio was ≤ 0.25.
MGDC was tested, and the enrichment ratio was ≤ 0.25.
For RYCD, the enrichment ratio was ≤ 0.25.
For KASG, the enrichment ratio was ≤ 0.25.
With EQSF the enrichment ratio was ≤ 0.25.
With TILF the enrichment ratio was ≤ 0.25.
With WGKM the enrichment ratio was ≤ 0.25.
For VKQL, the enrichment ratio was ≤ 0.25.
With QGRP the enrichment ratio was ≤ 0.25.
IHGN was tested, and the enrichment ratio was ≤ 0.25.
QCLI was tested, and the enrichment ratio was ≤ 0.25.
For VPAS, the enrichment ratio was ≤ 0.25.
Work on SFLS yielded an enrichment ratio of 3.63.
In the case of HGHW, the enrichment ratio is reported as ≤ 0.25.
QLDY was tested, and the enrichment ratio was ≤ 0.25.
For DPWH, the enrichment ratio was ≤ 0.25.
RQSA was tested, and the enrichment ratio was ≤ 0.25.
For KEFL, the enrichment ratio was ≤ 0.25.
For EMYQ, the enrichment ratio was ≤ 0.25.
In the case of IQDG, the enrichment ratio is reported as ≤ 0.25.
For QVGT, the enrichment ratio was ≤ 0.25.
With QSCI the enrichment ratio was ≤ 0.25.
With YNWQ the enrichment ratio was ≤ 0.25.
In the case of EFSA, the enrichment ratio is reported as ≤ 0.25.
With PCVI the enrichment ratio was ≤ 0.25.
In the case of VHTT, the enrichment ratio is reported as ≤ 0.25.
MAIG was tested, and the enrichment ratio was 9.17.
In the case of RRIS, the enrichment ratio is reported as ≤ 0.25.
